Data taken from PMC9911399, “Two distinct binding modes provide the RNA-binding protein RbFox with extraordinary sequence specificity”.
Residue numbers refer to the chain shown, from its start. The list shows a part of the results.

B1: GAAGGAA (DNA:RNA)
RNA: GGGAGACCGGAAUUCAGAUUGUCCGAAGGAAUUAAAUCCCGUCGUAGCCACCA
DNA 1: CAATCTGAATTCCGGTCTCCC
DNA 2: TGGTGGCTACGACGGGATT
B2: CGGACCA (DNA:RNA)
RNA: B1 RNA with G25C, A26G, A27G, G28A, G29C, A30C
DNA 1: CAATCTGAATTCCGGTCTCCC
DNA 2: TGGTGGCTACGACGGGATT
B3: CAAGGGG (DNA:RNA)
RNA: B1 RNA with G25C, A30G, A31G
DNA 1: CAATCTGAATTCCGGTCTCCC
DNA 2: TGGTGGCTACGACGGGATT
B4: AUCAUGU (DNA:RNA)
RNA: GGGAGACCGGAAUUCAGAUUGUCCAUCAUGUUUAAAUCCCGUCGUAGCCACCA
DNA 1: CAATCTGAATTCCGGTCTCCC
DNA 2: TGGTGGCTACGACGGGATT
B5: CACUUGU (DNA:RNA)
RNA: B4 RNA with A25C, U26A, A28U
DNA 1: CAATCTGAATTCCGGTCTCCC
DNA 2: TGGTGGCTACGACGGGATT
B6: GGCAUGU (DNA:RNA)
RNA: B4 RNA with A25G, U26G
DNA 1: CAATCTGAATTCCGGTCTCCC
DNA 2: TGGTGGCTACGACGGGATT
B7: UGAGCAG (DNA:RNA)
RNA: B1 RNA with G25U, A26G, G29C, A31G
DNA 1: CAATCTGAATTCCGGTCTCCC
DNA 2: TGGTGGCTACGACGGGATT
B8: UAAAGGU (DNA:RNA)
RNA: B4 RNA with A25U, U26A, C27A, U29G
DNA 1: CAATCTGAATTCCGGTCTCCC
DNA 2: TGGTGGCTACGACGGGATT
B9: GCUUUUA (DNA:RNA)
RNA: B1 RNA with A26C, A27U, G28U, G29U, A30U
DNA 1: CAATCTGAATTCCGGTCTCCC
DNA 2: TGGTGGCTACGACGGGATT
B10: GGUUCAA (DNA:RNA)
RNA: B1 RNA with A26G, A27U, G28U, G29C
DNA 1: CAATCTGAATTCCGGTCTCCC
DNA 2: TGGTGGCTACGACGGGATT
B11: UUUAAGA (DNA:RNA)
RNA: B4 RNA with A25U, C27U, U29A, U31A
DNA 1: CAATCTGAATTCCGGTCTCCC
DNA 2: TGGTGGCTACGACGGGATT
B12: UACAUGA (DNA:RNA)
RNA: B4 RNA with A25U, U26A, U31A
DNA 1: CAATCTGAATTCCGGTCTCCC
DNA 2: TGGTGGCTACGACGGGATT
B13: CGAGUAU (DNA:RNA)
RNA: B1 RNA with G25C, A26G, G29U, A31U
DNA 1: CAATCTGAATTCCGGTCTCCC
DNA 2: TGGTGGCTACGACGGGATT
B14: UAGUACC (DNA:RNA)
RNA: B1 RNA with G25U, A27G, G28U, G29A, A30C, A31C
DNA 1: CAATCTGAATTCCGGTCTCCC
DNA 2: TGGTGGCTACGACGGGATT
B15: AAGUUGC (DNA:RNA)
RNA: B4 RNA with U26A, C27G, A28U, U31C
DNA 1: CAATCTGAATTCCGGTCTCCC
DNA 2: TGGTGGCTACGACGGGATT
B16: CUUUACA (DNA:RNA)
RNA: B4 RNA with A25C, C27U, A28U, U29A, G30C, U31A
DNA 1: CAATCTGAATTCCGGTCTCCC
DNA 2: TGGTGGCTACGACGGGATT
B17: UCGUGUA (DNA:RNA)
RNA: B1 RNA with G25U, A26C, A27G, G28U, A30U
DNA 1: CAATCTGAATTCCGGTCTCCC
DNA 2: TGGTGGCTACGACGGGATT
B18: CAAAUGU (DNA:RNA)
RNA: B4 RNA with A25C, U26A, C27A
DNA 1: CAATCTGAATTCCGGTCTCCC
DNA 2: TGGTGGCTACGACGGGATT
B19: CCAUAGU (DNA:RNA)
RNA: B4 RNA with A25C, U26C, C27A, A28U, U29A
DNA 1: CAATCTGAATTCCGGTCTCCC
DNA 2: TGGTGGCTACGACGGGATT
B20: GUACCCA (DNA:RNA)
RNA: B1 RNA with A26U, G28C, G29C, A30C
DNA 1: CAATCTGAATTCCGGTCTCCC
DNA 2: TGGTGGCTACGACGGGATT
B21: AACAGAG (DNA:RNA)
RNA: B4 RNA with U26A, U29G, G30A, U31G
DNA 1: CAATCTGAATTCCGGTCTCCC
DNA 2: TGGTGGCTACGACGGGATT
B22: UGUGUCC (DNA:RNA)
RNA: B4 RNA with A25U, U26G, C27U, A28G, G30C, U31C
DNA 1: CAATCTGAATTCCGGTCTCCC
DNA 2: TGGTGGCTACGACGGGATT
B23: GAAUUCA (DNA:RNA)
RNA: B1 RNA with G28U, G29U, A30C
DNA 1: CAATCTGAATTCCGGTCTCCC
DNA 2: TGGTGGCTACGACGGGATT
B24: AGGAGUG (DNA:RNA)
RNA: B4 RNA with U26G, C27G, U29G, G30U, U31G
DNA 1: CAATCTGAATTCCGGTCTCCC
DNA 2: TGGTGGCTACGACGGGATT
B25: UCAAAGU (DNA:RNA)
RNA: B4 RNA with A25U, U26C, C27A, U29A
DNA 1: CAATCTGAATTCCGGTCTCCC
DNA 2: TGGTGGCTACGACGGGATT
B26: GAAAGCA (DNA:RNA)
RNA: B1 RNA with G28A, A30C
DNA 1: CAATCTGAATTCCGGTCTCCC
DNA 2: TGGTGGCTACGACGGGATT
B27: CAGCGCC (DNA:RNA)
RNA: B1 RNA with G25C, A27G, G28C, A30C, A31C
DNA 1: CAATCTGAATTCCGGTCTCCC
DNA 2: TGGTGGCTACGACGGGATT
B28: CUGGAAU (DNA:RNA)
RNA: B4 RNA with A25C, C27G, A28G, U29A, G30A
DNA 1: CAATCTGAATTCCGGTCTCCC
DNA 2: TGGTGGCTACGACGGGATT
B29: AAUCAUG (DNA:RNA)
RNA: B4 RNA with U26A, C27U, A28C, U29A, G30U, U31G
DNA 1: CAATCTGAATTCCGGTCTCCC
DNA 2: TGGTGGCTACGACGGGATT
B30: CUGGGUG (DNA:RNA)
RNA: B1 RNA with G25C, A26U, A27G, A30U, A31G
DNA 1: CAATCTGAATTCCGGTCTCCC
DNA 2: TGGTGGCTACGACGGGATT
B31: GGCAGCG (DNA:RNA)
RNA: B4 RNA with A25G, U26G, U29G, G30C, U31G
DNA 1: CAATCTGAATTCCGGTCTCCC
DNA 2: TGGTGGCTACGACGGGATT

These binders were tested against T1, RBFOX1 RRM (Homo sapiens, UniProt Q9NWB1 109-208) (assay: EMSA; HiTS-Eq, 1 nM pool, 10 min; buffer printed only for the single-RNA assays: 10 mM Tris pH 7.5, 150 mM NaCl, 3.4 mM EDTA, 0.001% NP-40, 30 C). Conditions: tags: His6 N-terminal (pET28a); label: 5' 32P.
T1 sequence: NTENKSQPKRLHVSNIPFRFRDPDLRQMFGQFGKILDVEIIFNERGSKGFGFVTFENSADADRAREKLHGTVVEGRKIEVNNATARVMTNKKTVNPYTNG
Procedure, shortened: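 These values rest on relative association constants, computed from read-count changes of each RNA species versus the control reaction and normalised to the cognate motif. Reads came from free RNA recovered by 8% native PAGE after purified RbFox RRM (wild type or mutant) at increasing concentrations was equilibrated for 10 min in 50 µL with 1 nM of a 5′-radiolabelled pool with 7 randomized nucleotides and DNA-annealed flanks.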

Binder | binding signal
B1 | 0.00974 KA relative to UGCAUGU
B2 | 0.0131 KA relative to UGCAUGU
B3 | 0.00379 KA relative to UGCAUGU
B4 | 0.00301 KA relative to UGCAUGU
B5 | 0.00747 KA relative to UGCAUGU
B6 | 0.426 KA relative to UGCAUGU
B7 | 0.019 KA relative to UGCAUGU
B8 | 0.00976 KA relative to UGCAUGU
B9 | 0.00997 KA relative to UGCAUGU
B10 | 0.0096 KA relative to UGCAUGU
B11 | 0.00979 KA relative to UGCAUGU
B12 | 0.0103 KA relative to UGCAUGU
B13 | 0.00513 KA relative to UGCAUGU
B14 | 0.00724 KA relative to UGCAUGU
B15 | 0.0145 KA relative to UGCAUGU
B16 | 0.00298 KA relative to UGCAUGU

Binder | binding signal
B17 | 0.0149 KA relative to UGCAUGU
B18 | 0.00677 KA relative to UGCAUGU
B19 | 0.002 KA relative to UGCAUGU
B20 | 0.0034 KA relative to UGCAUGU
B21 | 0.00391 KA relative to UGCAUGU
B22 | 0.0226 KA relative to UGCAUGU
B23 | 0.00706 KA relative to UGCAUGU
B24 | 0.0152 KA relative to UGCAUGU
B25 | 0.0048 KA relative to UGCAUGU
B26 | 0.0109 KA relative to UGCAUGU
B27 | 0.00465 KA relative to UGCAUGU
B28 | 0.0202 KA relative to UGCAUGU
B29 | 0.00621 KA relative to UGCAUGU
B30 | 0.0408 KA relative to UGCAUGU
B31 | 0.0106 KA relative to UGCAUGU
